Results from the supplement of paper PMC11417369.
± gives the standard deviation of the averaged measurements. The list shows a part of the results.

Each sequence was assayed on PfAP2-LT AP2 domain (GST-tagged) (assay: gcPBM binding intensity (ln(normalized median fluorescence intensity)); higher = stronger DNA binding).
Procedure, shortened: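 Binding intensity is the highest Masliner-normalised natural-log median intensity over replicate spots in either probe orientation. To obtain it, GST-tagged P. falciparum DNA-binding domains made in E. coli were incubated for 1 h on an Agilent 4 × 180k array of primer-extended double-stranded 36-bp intergenic genomic probes plus negative controls. Detection used Alexa488 anti-GST antibody with scanning at 488 nm.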

Row | Sequence | gcPBM binding intensity (ln)
1 | TAAATATTATTTCATAGTACTTTTATTATTGATATA [XGTACX_site5566] | 8.53 ± 0.42
2 | TTTTGTAGTTTATAAATAAAAGAGAATATGGTGCTT [CACACA_negctrl_site413] | 8.55 ± 0.47
3 | TAAATAAATATATATACACACATATATATATATATA [CACACA_site598] | 9.43 ± 0.071
4 | ATATATATAAAACACACACACAAAAAAAATAAAGAC [CACACA_site117] | 10.1 ± 0.28
5 | TAATGTATATGTAAATGTACATGTATATTATTTAAA [XGTACX_site1840] | 8.64 ± 0.4
6 | ATCAAAGATAAATTTACACACATATATATATATATA [CACACA_site2969] | 9.72 ± 0.085
7 | AAGATATTTGTATAATGTACAAAACTATATAAAACT [XGTACX_site1433] | 8.81 ± 0.46
8 | TCTTCCCAAATAAAGTGTACATAAATACGAATAATA [XGTACX_site4363] | 8.65 ± 0.49
9 | AAAATTAAAATATATACACACATATATATATTAAAT [CACACA_site4419] | 8.85 ± 0.42
10 | AAATATACAAAATATACACACATATTTATTTATGAT [CACACA_site2051] | 8.91 ± 0.39
11 | TATTTTCATTTGCGCGCACACAATAATAATTTTTGG [CACACA_site3525] | 9.32 ± 0.34
12 | AACAATTATTTATCTACACACTTTTATGTTATTTAC [CACACA_site9] | 9.12 ± 0.43
13 | TAAAAAATATAAATGACACACACTTAAAAACAAAGA [CACACA_site671] | 9.23 ± 0.38
14 | TATAAATTAATGACATGTACATAAAAGTATAGATGT [XGTACX_site6534] | 9.21 ± 0.43
15 | AATACAATATAGTGAAAAATAATTAAATACAATAAG [XGTACX_negctrl_site161] | 8.88 ± 0.61
16 | CGTAAACAATTATGATGTACATAAAATATATATATA [XGTACX_site2705] | 8.96 ± 0.47
17 | GTATTAGATAAATACACACACAAGCATATATTTTTA [CACACA_site3431] | 9.28 ± 0.4
18 | TCTATTCATTTTGAAGGTACACATTTCTTTATAATA [XGTACX_site6218] | 8.52 ± 0.48
19 | AAAAATATATATATATATATATATATAAGGAATATA [XGTACX_negctrl_site450] | 9.37 ± 0.32
20 | AATATATCATTATATAAACACACAATATGTTTTTTA [CACACA_site9260] | 8.66 ± 0.44
21 | AATAAATATATAAATACACACAAACATACATATATA [CACACA_site9340] | 9.29 ± 0.34
22 | TTAAATTTTTTTTTGTGTACGAAAAACAGAAAAAAT [XGTACX_site8625] | 8.26 ± 0.53

Row | Sequence | gcPBM binding intensity (ln)
23 | TATGTGTATGGGAATGCATGTAAATATGTACATATA [TGCATGCA_site737] | 8.93 ± 0.45
24 | ATATATATATACATATGTACATATAAAATAATTTTG [XGTACX_site3731] | 8.87 ± 0.33
25 | TTGTTCCACAAAAATTTAGTCAAAAAAAAATAAAAA [TGCATGCA_negctrl_site546] | 8.27 ± 0.43
26 | ACAAAAAAAAAAATAACACACATGGGGGTGTATAAA [CACACA_site3797] | 9.2 ± 0.12
27 | AATGAATAACAATACTATATGATTTTTAATACATTA [XGTACX_negctrl_site42] | 8.45 ± 0.49
28 | ATTAATTAAGGCACATGTACAAAATATTTTTTATAA [XGTACX_site1964] | 8.79 ± 0.35
29 | TATACAATCTATATAACACACATATTTATATAAAAT [CACACA_site1797] | 8.79 ± 0.38
30 | AATATAGTTCAATATACACACCCCTTTATTCATTTT [CACACA_site3625] | 9.15 ± 0.26
31 | CAATATAAAAAACACACACACAAACATATATTTATA [CACACA_site3703] | 9.84 ± 0.29
32 | TATTTATATAAAAATACACACATGAATGGATATATA [CACACA_site6335] | 8.79 ± 0.4
33 | TGTCGGCTTAGATTAGTGCACTGAAAAATGAAGTAT [GTGCAC_site9919] | 8.72 ± 0.49
34 | ACAAAACGAACATACGCATGTGTGTACATTAATATA [TGCATGCA_site922] | 9.51 ± 0.34
35 | CACCAATTCCTATGCACACACATCTGCATATTATAT [CACACA_site5049] | 9.62 ± 0.38
36 | TTATTTACATCAAGTACATGCAGTAAAAAAAAAAAA [TGCATGCA_site351] | 8.62 ± 0.43
37 | ATATAATATATGTATACACACATATTATATAATATT [CACACA_site3699] | 8.97 ± 0.33
38 | ATGAACAGTTCATGTTGTACAATCTCCATTTTTTAC [XGTACX_site3933] | 8.85 ± 0.41
39 | TATACACATTTTTATACACACTTGTTTTATAAAACG [CACACA_site6480] | 8.88 ± 0.4
40 | ATAATATGAAATATAACACACATATATAAAAACATT [CACACA_site866] | 9.11 ± 0.33
41 | TATTTTTTTTTTGGGTGTACCTTTTATATATATTGT [XGTACX_site5036] | 8.84 ± 0.52
42 | TTTTTTTTTTTTTTTTGTACTTAAAAATTTATATAA [XGTACX_site7718] | 8.2 ± 0.45
43 | TATATATATATATATGCATGTACATATATTTGTTAT [TGCATGCA_site379] | 9.99 ± 0.4
44 | CATTTATATATATACACACACACAAAAAAAAAAAAA [CACACA_site2645] | 9.57 ± 0.49

Row | Sequence | gcPBM binding intensity (ln)
45 | ATTTAACTAAAGAAGGCACACGTGTTTAAAAAAAAA [CACACA_site5241] | 8.7 ± 0.48
46 | GACGTTATGATACACATACACACAGGGATAAAAAAT [CACACA_site2882] | 9.3 ± 0.4
47 | AATATTATATTTTATTGTACTAATAAAAATATATGC [XGTACX_site5435] | 8.61 ± 0.4
48 | GAAACTTCAAGAAATGCACACAATAAAATAAATAAA [CACACA_site1549] | 9.06 ± 0.35
49 | AGCATTAAAAATGGAATGGAATTAAGCTATATATTA [CACACA_negctrl_site1571] | 8.86 ± 0.52
50 | AGTATATATTATATATATATATATATATTATATATG [TGCATGCA_negctrl_site99] | 8.86 ± 0.34
51 | ATAGAATATTATATTACACACAGAATAATAAAAAAT [CACACA_site86] | 9.13 ± 0.4
52 | ACATCTCTTATATATTCACACACATATATATAATTA [CACACA_site8424] | 9.21 ± 0.32
53 | TTTTTTTTTTAATTCGCACACTGTCTTCATGCAATT [CACACA_site4882] | 9.13 ± 0.52
54 | TTAAAAAATTTTTAAGCACACACATAGATAATATAT [CACACA_site8440] | 9.07 ± 0.44
55 | GCACATCTATATGAAACACACATGGAAACATCTCTT [CACACA_site7793] | 9.1 ± 0.38
56 | TGTATATATTATAAAAGTACATAATATTCTTAGATA [XGTACX_site5623] | 8.51 ± 0.48
57 | TTATCTTACATAAATTATAACAATAATATGTGTATA [XGTACX_negctrl_site379] | 8.47 ± 0.43
58 | CATTTCGAAAAAAAATGTACTTATTATATTTATATA [XGTACX_site6752] | 8.39 ± 0.42
59 | TTTTGTCTTATATGTTGTACAACGTAAACAAAAAAA [XGTACX_site4412] | 8.4 ± 0.46
60 | AAAAGAATATATAATTGTACTTAAAATATAATTAAG [XGTACX_site4484] | 8.52 ± 0.49
61 | TTTCGATTAAAAATTGTACAATATAAGGAGCACACA [GTGCAC_negctrl_site476] | 8.69 ± 0.44
62 | TAAAAAAAAAAATGAACATGCAACAATTGTGATGAA [TGCATGCA_site332] | 8.86 ± 0.49
63 | CTTTTTTTGACCTTAGTGCAAATAACTATATATTAT | 8.75 ± 0.44
64 | AACCACAGACATATAACACACATATACAATATATAT [CACACA_site5142] | 9.34 ± 0.43
65 | ATGAAAATTATAAAGTGTACATATAGAAACATTTAC [XGTACX_site8047] | 8.78 ± 0.49
66 | ACTGTAACAATCATGGGTACAAATAAAATAATATCT [XGTACX_site99] | 8.94 ± 0.52

Row | Sequence | gcPBM binding intensity (ln)
67 | ATGGGACATATATATACACACATATATATATATATA [CACACA_site1202] | 9.96 ± 0.24
68 | AAAAAAATTAAACATGAAGAATAAGGAACAAAAAAA [CACACA_negctrl_site1607] | 8.78 ± 0.55
69 | TTTAATCATATGTTATATAATAAGCCCCCCCCCCAA [CACACA_negctrl_site486] | 10.2 ± 0.17
70 | ATTTAAGTAGTACATACACACACATATACAAAAAGA [CACACA_site9317] | 9.46 ± 0.32
71 | TTACTAAAAATTATTAATAAATAATAATTATAAATT [GTGCAC_negctrl_site310] | 8.21 ± 0.5
72 | ATTTTTAAGCATATCAAAAAAAAAAAAAAAATTAAT [CACACA_negctrl_site980] | 8.27 ± 0.48
73 | TAAAAAGGAAAACACACACACACATATATATATATA [CACACA_site3588] | 10.2 ± 0.26
74 | TTTCCAATTAGTTTTGCATGTTGAAAAAATGTTGGA [TGCATGCA_site1035] | 8.29 ± 0.25
75 | TTATTATTAAGACACACACACAAAAAAAAAAAAAAA [CACACA_site6805] | 9.26 ± 0.46
76 | TATTTTAACTTCTCATGTACATATATTATGTCTATA [XGTACX_site249] | 9.02 ± 0.47
77 | TATCATAAACTTCCTTACTATACTTTTCTTATTCAT [CACACA_negctrl_site1341] | 8.71 ± 0.49
78 | CTTTGTAGTATATTAACACACAACTATTTATAATAT [CACACA_site3934] | 8.85 ± 0.37
79 | TTTTTAATAAAATGATTGATAATTATTAAATTAAAA [CACACA_negctrl_site488] | 7.92 ± 0.36
80 | TTGTGTTTGCGTAAATGTACGGAAAGACTTGAAGAC [XGTACX_site7235] | 8.9 ± 0.49
81 | TTGTTAGAGTATATTGAAAGGATAACCTTTTTTTAT [XGTACX_negctrl_site122] | 8.32 ± 0.45
82 | ACCATACATACATACACACACACACCCATATATATA [CACACA_site2917] | 10.2 ± 0.26
83 | TTTCATGTTTTAAAGTGTACATAAATATATTATATG [XGTACX_site3367] | 8.62 ± 0.42
84 | GGAAACACAATATATACACACATATATATATATATA [CACACA_site235] | 10.1 ± 0.021
85 | ACACTTAAATATTGTTGTACAAAATGATAAAATGTA [XGTACX_site4588] | 9.02 ± 0.45
86 | ATTTATATTATAATATGTACACAAAAAAAATTAGGA [XGTACX_site565] | 8.61 ± 0.38
87 | TTATATAACCCTCATGCATGCTAAGAAAAAAAAAAC [TGCATGCA_site936] | 8.72 ± 0.35
88 | TTGATGTATACAATGTAGATTATTTAATATTTCAAT [GTGCAC_negctrl_site203] | 8.48 ± 0.32
